# Laboratory results from PubChem BioAssay (NCATS).
# The inconclusive results got no clear call from the source; some entries with a clear call stand among them for comparison. For part of these data: Potencies of inconclusive entries are doubtful fits and often do not repeat. The source made the active and inactive calls. Unless noted, calls come from the whole dose curve; as a rule, active = well fitted curve in the direction sought with a large enough effect; inconclusive = small, poorly fitted or top-dose-only effect, or another doubt; inactive = no such curve, though single readings can be large; an effect the other way counts as inactive or inconclusive.
# What was measured:
# [1] = target: Muscarinic acetylcholine receptor M1 (Rattus norvegicus) (UniProt P08482); experiment: qHTS Assay for Antagonists of Acetylcholine Muscarinic M1 Receptor: Kinetic Measurement of Intracellular Calcium Response (AID 943); note: potency is the fitted concentration of half-maximal effect; nearly all actives have a fitted effect of over 75% in size
# In short: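 Antagonism measured as reduction of carbachol-evoked (EC80, 100 nM final) calcium flux in rat M1-CHO cells after 10 min compound exposure. Fluo-4 signal read kinetically; ratio of maximal to basal fluorescence.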
# [2] = qHTS for differential inhibitors of proliferation of Plasmodium falciparum line 7G8 (AID 1815);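 note: potency is the fitted concentration of half-maximal effect; parasite growth measured after three days of incubation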
# [3] = qHTS for differential inhibitors of proliferation of Plasmodium falciparum line GB4 (AID 1816); conditions: Potency: Plasmodium falciparum GB4 proliferation inhibition;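 note: potency is the fitted concentration of half-maximal effect; parasite growth measured after 72 h incubation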
# [4] = qHTS for differential inhibitors of proliferation of Plasmodium falciparum line D10 (AID 1877);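 note: potency is the fitted concentration of half-maximal effect; parasites grown with compound for 72 h before DNA staining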
# [5] = qHTS for differential inhibitors of proliferation of Plasmodium falciparum line W2 (AID 1883); conditions: Potency: Plasmodium falciparum W2 proliferation inhibition;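 note: potency is the fitted concentration of half-maximal effect; parasites grown with compound for 72 h before lysis and staining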
# [6] = qHTS for differential inhibitors of proliferation of Plasmodium falciparum line HB3 (AID 1886); conditions: Potency: Plasmodium falciparum HB3 proliferation inhibition;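 note: potency is the fitted concentration of half-maximal effect; parasites grown with compound for 72 h before SYBR Green readout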
# [7] = Validation screen for inhibitors of Lassa infection (AID 463096; calls by dose curve; note: % is set by controls: 0 for no effect and ±100 for the full control effect)
# [8] = target: ATP-dependent 6-phosphofructokinase (Trypanosoma brucei brucei) (UniProt O15648); experiment: qHTS Validation Assay to Find Inhibitors of T. brucei phosphofructokinase (AID 485368); note: potency is the fitted concentration of half-maximal effect
# In short: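 qHTS format, up to 57 uM. PFK 1.25 nM; F6P 0.5 mM; ATP 0.1 mM; 5 mM MgCl2, 0.01% Tween20, 0.1% BSA; 0.1 M TEA pH 8.0; 45 min RT; ADP-Glo readout; no-enzyme control = full inhibition.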
# [9] = Quantitative high throughput screen for delayed death inhibitors of the malarial parasite plastid, 96 hour incubation (AID 488745); note: potency is the fitted concentration of half-maximal effect; nearly all actives have a fitted effect of over 70% in size
# In short: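 Decreased firefly luciferase luminescence indicates inhibited growth of reporter-integrated P. falciparum after two generations (96 h, 37 C, 5% CO2). Infected erythrocytes at 0.1% parasitemia, 2% hematocrit, in Albumax-supplemented RPMI 1640.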
# [10] = target: ATPase family AAA domain-containing protein 5 (Homo sapiens) (UniProt Q96QE3); experiment: Validation screen for small molecules that inhibit ELG1-dependent DNA repair in human embryonic kidney (HEK293T) cells expressing luciferase-tagged ELG1 (AID 493107); conditions: HEK293T ELG1-luciferase level, luminescence, 5-fluorouridine co-treatment, 16 h; activity change, negative = decrease: at 46.1 µM (top of the series); note: potency is the fitted concentration of half-maximal effect; nearly all actives have a fitted effect of over 70% in size
# In short: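 Luciferase read-out, ONE-Glo, 30 min at room temperature, follows 16 h co-exposure at 37 C of compound and the DNA-damaging agent 5-fluorouridine. Cells: HEK293T with ELG1-luciferase fusion, 2,000 per well, DMSO as vehicle.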
# [11] = target: Cytochrome P450 3A4 (Homo sapiens) (UniProt P08684); experiment: qHTS Assay for Inhibitors and Substrates of Cytochrome P450 3A4 (AID 884); note: potency is the fitted concentration of half-maximal effect; nearly all actives have a fitted effect of over 50% in size
# In short: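 Luminescent readout of luciferin produced by CYP3A4 (20 nM) dealkylation of Luciferin-PPXE, 25 uM (its KM). NADPH-driven reaction ran 60 min at RT after 10 min compound preincubation; data scaled to 57 uM ketoconazole as 100% inhibition.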
# [12] = target: Nuclear receptor subfamily 1 group I member 3 (Homo sapiens) (UniProt Q14994); experiment: Primary qHTS for agonist of constitutive androstane receptor (CAR) against the NCATS DSHEA and TCM libraries (AID 1794839); conditions: Potency: CAR antagonist co-added at 0.75 µM unless noted; note: potency is the fitted concentration of half-maximal effect
# In short: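 Concentration–response screen in HepG2-CYP2B6-hCAR cells under 0.75 µM PK11195; 24 h exposure; luminescent reporter signal with multiplexed fluorescent viability.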
# [13] = HepG2 viability counterscreen (readout 2: ATP content) against the NCATS DSHEA and TCM libraries (AID 1794840); conditions: ATP content luminescence; at 27.3 µM (top of the series);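 note: HepG2 cells exposed to substances for about 24 h; 0% is about no effect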
# In short: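 After HepG2 cells attach for ~4 h, substances are added and incubated ~24 h at 37C, 5% CO2. GF-AFC fluorescence then CellTiter-Glo luminescence give protease and ATP readouts.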
# [14] = target: Cytochrome P450 3A4 (Homo sapiens) (UniProt P08684); experiment: qHTS for inhibitors of CYP3A4 against the NCATS DSHEA and TCM libraries (AID 1919971); note: potency is the fitted concentration of half-maximal effect
# In short: (§1)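 Each CYP isoform and its pro-luciferin substrate, at isoform-specific final concentrations, were preincubated 15 min at RT with substances. NADPH regeneration solution (1x) started a 30-45 min reaction, and P450-Glo luminescence was read.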
# [15] = target: Cytochrome P450 2C9 (Homo sapiens) (UniProt P11712); experiment: qHTS for inhibitors of CYP2C9 against the NCATS DSHEA and TCM libraries (AID 1919973); note: potency is the fitted concentration of half-maximal effect
# In short: as §1
# [16] = target: Cytochrome P450 2C19 (Homo sapiens) (UniProt P33261); experiment: qHTS for inhibitors of CYP2C19 against the NCATS DSHEA and TCM libraries (AID 1919974);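 note: luminescence from luciferin released by CYP2C19 oxidation of a pro-luciferin substrate; potency is the fitted concentration of half-maximal effect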
# In short: as §1
# [17] = target: Cytochrome P450 1A2 (Homo sapiens) (UniProt P05177); experiment: qHTS for inhibitors of CYPIA2 against the NCATS DSHEA and TCM libraries (AID 1919976); note: potency is the fitted concentration of half-maximal effect
# In short: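 Reaction started with 1x NADPH regeneration solution and run 30-45 min, room temperature, protected from light, after compounds sat 15 min with CYP1A2 and pro-luciferin substrate. P450-Glo detection gave luminescence; furafylline served as control.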
# [18] = target: Nuclear receptor subfamily 1 group I member 2 (Homo sapiens) (UniProt O75469); experiment: Dual reporter qHTS for agonist of Pregnane X Receptor (hPXR) against the NCATS DSHEA and TCM libraries: Luminescence readout (AID 1920059); note: potency is the fitted concentration of half-maximal effect
# In short: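 Luminescent PXR reporter read (ONE-Glo) after a CellTiter-Fluor viability read, following 24 h, 37C treatment of HepG2 cells stably carrying hPXR-Luc.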
# [19] = NCATS anti-infectives library activity on HEK293 viability as a counter-qHTS vs the C. elegans viability qHTS (AID 1745854); conditions: HEK293 viability counter-screen; activity change, negative = cytotoxicity: at 83.3 µM (top of the series) unless noted; note: % is set by controls: 0 for no effect and ±100 for the full control effect
# In short: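 Cytotoxicity counter-screen to a worm viability qHTS: CellTiter-Glo luminescence read 10 min after reagent addition. Compounds (final up to 41.7 uM, a 1:5 dilution series) incubated 24 hr at 37C with 1,500 HEK293 cells per well; digitonin control.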
# [20] = target: Dual specificity protein kinase CLK4 (Homo sapiens) (UniProt Q9HAZ1); experiment: qHTS Assay for Inhibitors of CDC-like Kinase 4 (ADP-Glo Assay) (AID 1771); note: potency is the fitted concentration of half-maximal effect; nearly all actives have a fitted effect of over 70% in size
# In short: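 ADP production was read by ADP-Glo luminescence after residual ATP depletion, following 1 h room-temperature reaction of 25 nM Clk4, 1 uM ATP and 100 uM RS peptide with MgCl2, EGTA, DTT and Triton X-100.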
# [21] = target: Nuclear receptor subfamily 1 group I member 3 (Homo sapiens) (UniProt Q14994); experiment: Primary qHTS for antagonist of constitutive androstane receptor (CAR) against the NCATS DSHEA and TCM libraries (AID 1794836);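 note: HepG2 cells stably expressing hCAR with CYP2B6 luciferase reporter stimulated by CITCO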
# In short: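 Antagonist mode: CAR reporter luminescence (ONE-Glo) in HepG2-CYP2B6-hCAR cells stimulated with 48 uM CITCO (final) over 24 h at 37 C, compounds titrated; viability read first by CellTiter-Fluor fluorescence.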
# Tags give direction and shape of the fitted curve.
# Chain of UniProt P08684 (P08684 whole entry, looked up, canonical isoform): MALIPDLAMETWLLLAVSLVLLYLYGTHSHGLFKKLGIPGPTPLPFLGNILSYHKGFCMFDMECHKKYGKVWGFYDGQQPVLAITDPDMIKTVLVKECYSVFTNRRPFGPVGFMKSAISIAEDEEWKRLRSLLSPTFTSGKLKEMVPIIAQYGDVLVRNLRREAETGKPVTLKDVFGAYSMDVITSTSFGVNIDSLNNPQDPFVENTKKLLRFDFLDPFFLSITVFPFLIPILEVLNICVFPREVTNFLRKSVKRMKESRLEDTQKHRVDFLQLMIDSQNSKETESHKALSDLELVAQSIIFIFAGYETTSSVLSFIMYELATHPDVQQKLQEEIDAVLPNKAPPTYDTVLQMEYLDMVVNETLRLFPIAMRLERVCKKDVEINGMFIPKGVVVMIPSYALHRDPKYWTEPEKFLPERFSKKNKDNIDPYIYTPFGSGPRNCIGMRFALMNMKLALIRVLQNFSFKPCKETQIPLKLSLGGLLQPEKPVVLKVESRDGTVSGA
# Chain of UniProt P33261 (P33261 whole entry, looked up): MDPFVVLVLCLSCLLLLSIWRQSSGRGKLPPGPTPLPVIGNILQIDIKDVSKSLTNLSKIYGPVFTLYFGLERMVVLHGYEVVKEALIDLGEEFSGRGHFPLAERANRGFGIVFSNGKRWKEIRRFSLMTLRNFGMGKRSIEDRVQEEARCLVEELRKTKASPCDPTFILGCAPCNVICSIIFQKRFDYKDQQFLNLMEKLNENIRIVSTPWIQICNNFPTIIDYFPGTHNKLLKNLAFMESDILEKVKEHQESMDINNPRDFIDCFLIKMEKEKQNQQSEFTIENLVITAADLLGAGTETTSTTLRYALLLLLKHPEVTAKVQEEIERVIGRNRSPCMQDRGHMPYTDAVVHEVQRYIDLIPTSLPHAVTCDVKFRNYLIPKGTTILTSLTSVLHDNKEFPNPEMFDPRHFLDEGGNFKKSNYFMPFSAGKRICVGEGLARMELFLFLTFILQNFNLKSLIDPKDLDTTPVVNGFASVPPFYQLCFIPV
# Chain of UniProt P05177 (P05177 whole entry, looked up): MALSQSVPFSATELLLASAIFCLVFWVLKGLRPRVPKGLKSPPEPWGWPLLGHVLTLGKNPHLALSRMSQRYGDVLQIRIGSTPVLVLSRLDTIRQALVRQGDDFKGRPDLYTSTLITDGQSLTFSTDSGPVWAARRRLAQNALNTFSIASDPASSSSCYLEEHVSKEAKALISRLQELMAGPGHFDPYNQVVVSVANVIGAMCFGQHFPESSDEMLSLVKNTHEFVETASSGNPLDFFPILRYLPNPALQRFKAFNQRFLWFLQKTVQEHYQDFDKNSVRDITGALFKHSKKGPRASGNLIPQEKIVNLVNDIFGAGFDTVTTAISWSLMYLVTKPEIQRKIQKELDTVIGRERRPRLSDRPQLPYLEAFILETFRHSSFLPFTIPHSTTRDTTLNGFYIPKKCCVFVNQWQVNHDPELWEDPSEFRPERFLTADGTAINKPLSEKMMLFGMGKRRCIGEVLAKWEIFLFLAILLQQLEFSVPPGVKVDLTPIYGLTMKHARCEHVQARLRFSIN
# Chain of UniProt P11712 (P11712 whole entry, looked up): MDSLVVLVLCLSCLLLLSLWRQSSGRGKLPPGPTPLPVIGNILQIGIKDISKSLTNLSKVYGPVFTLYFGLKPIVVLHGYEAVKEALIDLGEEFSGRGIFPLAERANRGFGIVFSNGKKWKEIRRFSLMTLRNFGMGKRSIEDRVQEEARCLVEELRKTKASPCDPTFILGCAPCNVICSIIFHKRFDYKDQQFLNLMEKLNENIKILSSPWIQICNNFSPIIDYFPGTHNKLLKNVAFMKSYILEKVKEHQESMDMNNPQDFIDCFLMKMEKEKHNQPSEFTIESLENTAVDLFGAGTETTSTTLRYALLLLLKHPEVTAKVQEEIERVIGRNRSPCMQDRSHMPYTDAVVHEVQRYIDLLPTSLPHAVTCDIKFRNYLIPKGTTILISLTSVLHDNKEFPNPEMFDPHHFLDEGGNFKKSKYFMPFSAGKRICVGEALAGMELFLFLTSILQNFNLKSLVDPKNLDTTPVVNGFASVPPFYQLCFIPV
# Chain of UniProt Q14994 (Q14994 whole entry, looked up): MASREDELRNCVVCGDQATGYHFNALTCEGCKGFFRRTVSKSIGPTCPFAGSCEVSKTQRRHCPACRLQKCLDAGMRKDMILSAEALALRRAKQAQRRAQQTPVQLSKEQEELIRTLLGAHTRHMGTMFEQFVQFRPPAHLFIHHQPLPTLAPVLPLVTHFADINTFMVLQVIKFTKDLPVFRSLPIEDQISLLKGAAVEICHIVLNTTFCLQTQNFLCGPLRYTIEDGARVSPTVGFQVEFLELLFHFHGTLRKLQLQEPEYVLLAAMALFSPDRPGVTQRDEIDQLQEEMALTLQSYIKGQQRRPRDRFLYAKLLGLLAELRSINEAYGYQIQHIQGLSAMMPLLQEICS
# Chain of UniProt O15648 (O15648 whole entry, looked up): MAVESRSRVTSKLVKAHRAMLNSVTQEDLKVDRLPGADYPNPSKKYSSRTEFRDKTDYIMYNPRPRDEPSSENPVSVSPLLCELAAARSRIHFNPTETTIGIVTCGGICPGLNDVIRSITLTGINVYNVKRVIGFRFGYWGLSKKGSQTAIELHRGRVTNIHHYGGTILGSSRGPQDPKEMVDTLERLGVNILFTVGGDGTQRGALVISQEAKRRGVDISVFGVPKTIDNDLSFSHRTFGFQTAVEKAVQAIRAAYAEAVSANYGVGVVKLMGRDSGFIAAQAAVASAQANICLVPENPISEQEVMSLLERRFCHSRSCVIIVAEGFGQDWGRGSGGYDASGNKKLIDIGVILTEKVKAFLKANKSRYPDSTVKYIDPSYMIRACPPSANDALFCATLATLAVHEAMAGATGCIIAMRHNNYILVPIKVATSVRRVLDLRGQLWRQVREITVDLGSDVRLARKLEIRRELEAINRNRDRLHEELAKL
# Chain of UniProt P08482 (P08482 whole entry, looked up): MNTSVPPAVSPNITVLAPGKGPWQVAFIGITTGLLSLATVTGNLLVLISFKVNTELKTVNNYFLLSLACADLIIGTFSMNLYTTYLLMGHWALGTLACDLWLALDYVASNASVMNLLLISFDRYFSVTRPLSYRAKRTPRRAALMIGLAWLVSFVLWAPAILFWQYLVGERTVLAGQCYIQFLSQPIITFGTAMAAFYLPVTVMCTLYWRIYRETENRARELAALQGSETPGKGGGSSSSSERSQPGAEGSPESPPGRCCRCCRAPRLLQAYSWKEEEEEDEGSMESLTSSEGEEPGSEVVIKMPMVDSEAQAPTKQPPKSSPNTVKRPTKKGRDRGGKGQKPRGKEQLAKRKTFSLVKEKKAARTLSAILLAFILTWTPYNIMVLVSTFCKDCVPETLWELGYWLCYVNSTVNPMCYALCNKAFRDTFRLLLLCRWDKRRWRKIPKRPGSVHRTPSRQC
# Chain of UniProt O75469 (O75469 whole entry, looked up): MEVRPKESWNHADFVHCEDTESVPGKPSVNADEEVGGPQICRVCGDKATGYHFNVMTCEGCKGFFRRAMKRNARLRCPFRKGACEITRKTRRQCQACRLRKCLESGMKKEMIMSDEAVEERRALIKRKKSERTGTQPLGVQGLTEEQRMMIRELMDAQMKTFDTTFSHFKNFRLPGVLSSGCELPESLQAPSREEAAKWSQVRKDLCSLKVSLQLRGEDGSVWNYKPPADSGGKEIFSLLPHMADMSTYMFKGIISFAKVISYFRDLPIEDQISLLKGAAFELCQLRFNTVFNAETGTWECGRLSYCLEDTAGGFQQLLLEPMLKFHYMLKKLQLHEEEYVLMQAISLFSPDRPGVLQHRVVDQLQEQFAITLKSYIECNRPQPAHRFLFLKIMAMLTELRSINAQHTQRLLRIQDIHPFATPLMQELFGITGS
# Chain of UniProt Q9HAZ1 (Q9HAZ1 whole entry, looked up): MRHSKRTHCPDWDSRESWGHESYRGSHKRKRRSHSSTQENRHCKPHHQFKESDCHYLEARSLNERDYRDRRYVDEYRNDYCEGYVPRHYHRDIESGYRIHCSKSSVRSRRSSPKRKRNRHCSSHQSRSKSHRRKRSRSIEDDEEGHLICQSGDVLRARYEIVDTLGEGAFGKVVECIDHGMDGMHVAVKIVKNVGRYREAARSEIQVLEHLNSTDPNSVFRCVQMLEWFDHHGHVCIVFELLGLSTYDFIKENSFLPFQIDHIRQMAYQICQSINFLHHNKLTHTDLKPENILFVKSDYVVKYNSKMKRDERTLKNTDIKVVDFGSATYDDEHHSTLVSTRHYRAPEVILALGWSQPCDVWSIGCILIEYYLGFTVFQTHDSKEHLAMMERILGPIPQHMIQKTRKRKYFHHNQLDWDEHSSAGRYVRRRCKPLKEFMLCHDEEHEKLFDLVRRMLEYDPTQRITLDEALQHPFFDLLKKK
smiles,measurement,setting,value
NO,Potency,[1],"inconclusive: 0.0282 µM [inhibitor, full curve, poor fit]"
same,Potency,[2],"inconclusive: 12.6 µM [inhibitor, partial curve]"
same,Potency,[3],"inconclusive: 15.8 µM [inhibitor, partial curve, poor fit]"
same,Potency,[4],"inconclusive: 15.8 µM [inhibitor, partial curve, poor fit]"
same,Potency,[5],"inconclusive: 12.6 µM [inhibitor, partial curve]"
same,Potency,[6],"inconclusive: 11.2 µM [inhibitor, partial curve]"
same,Potency,[7],inactive
same,Potency,[8],"inconclusive: 0.012 µM [falling, full curve, poor fit]"
same,Potency,[9],"inconclusive: 11.7 µM [inhibitor, single point]"
same,Potency,[10],"inconclusive: 29.1 µM [activator, single point]"
COc1cc2c(cc1O)CC1c3c(cc(O)c(OC)c3-2)CCN1C (configuration not stated),Potency,[11],active: 25.1 µM
same,Potency,[12],"inconclusive: 5.01 µM [activator, full curve]"
same,"activity change, negative = cytotoxic",[13],inactive: 8.47%
same,Potency,[14],"inconclusive: 28.2 µM [inhibitor, partial curve]"
same,Potency,[15],active: 10 µM
same,Potency,[16],"inconclusive: 12.6 µM [inhibitor, partial curve]"
same,Potency,[17],active: 3.98 µM
same,Potency,[18],"inconclusive: 11.2 µM [activator, full curve]"
CC(C)[C@@H]1NC(=O)[C@@H](C(C)C)OC(=O)[C@H](C(C)C)NC(=O)[C@H](C)OC(=O)[C@@H](C(C)C)NC(=O)[C@@H](C(C)C)OC(=O)[C@H](C(C)C)NC(=O)[C@H](C)OC(=O)[C@@H](C(C)C)NC(=O)[C@@H](C(C)C)OC(=O)[C@H](C(C)C)NC(=O)[C@H](C)OC1=O,"activity change, negative = cytotoxicity",[19],inconclusive: -65.1% [at 29.2 µM]
Clc1ccccc1-c1cncnc1NCCc1cnc[nH]1,Potency,[20],"inconclusive: 35.5 µM [falling, single point]"
COc1cc2c(cc1O)CC1NCCc3cc(OC)c(OC)c-2c31 (configuration not stated),Potency,[21],inactive
same,Potency,[14],"inconclusive: 15.8 µM [inhibitor, partial curve]"
same,Potency,[15],"inconclusive: 14.1 µM [inhibitor, partial curve]"
same,Potency,[16],"inconclusive: 15.8 µM [inhibitor, partial curve]"
same,Potency,[17],active: 15.8 µM
CCCN1CCC[C@@H](c2cccc(C#N)c2)C1,Potency,[2],"inconclusive: 5.62 µM [inhibitor, partial curve, poor fit]"
same,Potency,[3],"inconclusive: 12.6 µM [inhibitor, partial curve]"
